# In a melting point compilation (Tetko et al.; mined from patent text by program, amines drawn as free bases though some values may be those of a salt):
row,melting point,SMILES
1,202 to 203 °C,O=C(/C=C/c1ccc(C(F)(F)F)cc1Cc1cccnc1)Nc1ccc2[nH]ccc2c1
2,253 to 255 °C,O=c1c(-c2cc(O)cc(Br)c2O)coc2cc(O)ccc12
